# In the supplement of paper PMC11417369:
# ± gives the standard deviation of the averaged measurements. Some of the results follow.
# Test system: PfAP2-G AP2 domain (GST-tagged)
# Assay: gcPBM binding intensity (ln(normalized median fluorescence intensity)); higher = stronger DNA binding
# Summary of the method: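 The highest Masliner-normalised natural-log median intensity across replicate spots of either probe orientation is reported as binding intensity. GST-tagged P. falciparum DNA-binding domains expressed in E. coli were applied for 1 h to an Agilent 4 × 180k array of primer-extended double-stranded 36-bp intergenic genomic probes plus negative controls, and bound protein was detected with Alexa488 anti-GST antibody and scanned at 488 nm.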
row,Sequence,gcPBM binding intensity (ln)
1,TAAGGAAAAAATTATAGTACATAATAAATGTATATA [XGTACX_site8328],10.9 ± 0.49
2,TTTTTATATATATTCTCACACACTTTTTATTTTAAC [CACACA_site657],9.96
3,CAAATTTTTTATTAAACACACAAACATATATTTATA [CACACA_site6992],9.85 ± 0.11
4,AAAAAAGAAAAGAAATCATGAAAGAATCAAATAAAG [CACACA_negctrl_site1771],9.59 ± 0.11
5,AATTTTTTTTTTTTTTTTTCTTTTGTAATAAACCAT [XGTACX_negctrl_site334],10.1 ± 0.43
6,AAAAAAAAAAAACACACACACACACCGAAATATATA [CACACA_site4261],10 ± 0.13
7,TTCAGCATAAACACTTGTACATATATACTAAAAATT [XGTACX_site7272],11 ± 0.52
8,TTTATTTTATCTAAAAGTACTTAAATTAGTGTATTT [XGTACX_site5696],11.2 ± 0.85
9,TTACGAAAAAACAAGAGTACATGATGTTATAAAATA [XGTACX_site1412],11.3 ± 0.75
10,ATATATATATATTATACACACGCCGAAAAAATAAAA [CACACA_site1551],10.1 ± 0.18
11,TCATACATTTTCAGCCTGCACTTATATTTAATAATA [GTGCAC_site9863],10.2 ± 0.18
12,TATATATATAAATACACACACACACCGATATATATA [CACACA_site5408],10.1 ± 0.2
13,CGTTGTAGGGAATGTAGTACAGTTATTATTTTATTA [XGTACX_site2429],11.6 ± 0.98
14,ATTTCCCCAACGTGGGTGCATATATTTATGTGTGAA [GTGCAC_site9439],10.5 ± 0.49
15,TAATGTATAATTAATCGTACATTAGATTGTTGTGTT [XGTACX_site52],11 ± 0.71
16,ATATATATATATGTGTGTACTTAAAAATATAATGCA [XGTACX_site7753],11.5 ± 0.91
17,ATTATATTTTTAAGTACACACATATAAATAAATATA [CACACA_site7682],11.4 ± 1
18,TATTAATTATTTTACTGTACTAATAATACTTTTATT [XGTACX_site2179],11.4 ± 0.8
19,ATTATGTGAGGTAACTAAATATGTACGTAACGAAGA [CACACA_negctrl_site1400],11.5 ± 0.97

row,Sequence,gcPBM binding intensity (ln)
1,ATTTTAAATTAAATTACACACTACGAATAATATATT [CACACA_site4016],9.88
2,ATATTTCTGTCAAGCACACATAATATTAATATATGT [CACACA_site318],10.2 ± 0.2
3,AAATGTGAACTATAATAATTTCAACGTCTGATATAA [TGCATGCA_negctrl_site440],9.895 ± 0.049
4,AAATTTATAAAGAACACACACATATATATATATATA [CACACA_site48],10.1 ± 0.4
5,CAAAACCTAATATGTACACACATATACATCACACTT [CACACA_site7480],11.3 ± 0.86
6,TTTCTTTCGAATGCTTCACACATTACTCTTAAATAG [CACACA_site5265],9.9 ± 0.11
7,ATATATATATATATAGTGCACATTTATATAATTATT,10.3 ± 0.42
8,ATTTTGTTATTATATATATATATATATATATATATA [XGTACX_negctrl_site590],9.89 ± 0.49
9,ACATATAAAATATTCACACACAAGTTATAGTTCTCG [CACACA_site3626],9.84 ± 0.042
10,AATAAATTATATATCACACATATATATTTATATTTA [CACACA_site5964],9.79 ± 0.2
11,ACATTAAAAAATTGTTTGCACTATATAAAATATTAA [GTGCAC_site9728],9.99 ± 0.2
12,AATATAAGAAAAATAACACACACATAAACATATATA [CACACA_site8899],9.955 ± 0.078
13,TTTCTTTTCTTCTCTATTTTTTTTTCACGGCATTAT [TGCATGCA_negctrl_site484],9.84 ± 0.2
14,TCTTTTCAATTTTATATGATCTTAATATTTTATGAA [GTGCAC_negctrl_site294],9.82 ± 0.11
15,TTTTTTTTTTTTTACACACACAAAATATTATAGGTA [CACACA_site7209],10 ± 0.38
16,ATTTTTTACATACTCAAATGTTTTAATTTTTTATAT [CACACA_negctrl_site1213],9.875 ± 0.007
17,ATTCATATGAAACACACACACACACCCATAAAAAAA [CACACA_site3246],10.3 ± 0.35
18,TAATGGAGAAAAAAAAAACACACGGTACATTCAAAG [CACACA_site3117],10.6 ± 0.23
19,AAGGGAAAATAATAAAAGAAAAAGAAAAAAAAAAAA [CACACA_negctrl_site1518],9.615 ± 0.021

row,Sequence,gcPBM binding intensity (ln)
1,AAATATTACATTTGTTAAATAATATGTTATACATAA [XGTACX_negctrl_site484],9.65
2,TTTTATAAAGGAAAAGCATGCAGACTAAAAGATCAT [TGCATGCA_site150],10.1 ± 0.14
3,TATATATATATATATTGTACTTTATATGTTCTTATA [XGTACX_site7545],11.2 ± 0.73
4,ACAATATTTTTTTATAAACACACATATATATAAATA [CACACA_site9175],9.97 ± 0.15
5,TATAGTGATATATACACACACTTGTCTTGTAAAAAT [CACACA_site6594],10.12 ± 0.078
6,GAGAGGAACATTATATGTACATATTAATTCTAAAAT [XGTACX_site5433],11.1 ± 0.57
7,ACAAATAAGTTTTATACACACATATAAGTAAATACA [CACACA_site4157],9.905 ± 0.007
8,TAATCCATAAGAAGCACACACATATATATATATTTT [CACACA_site1399],9.835 ± 0.049
9,TATTAATTATTATGACATACATATCAGTTATTAAAA [CACACA_negctrl_site600],9.71 ± 0.042
10,TGTATAAAAATTTATACACACATTTTATATATTTCA [CACACA_site1015],9.68 ± 0.13
11,TATTATAATATGCCTTGTACATATAACAAATTTATT [XGTACX_site108],10.8 ± 0.52
12,TTTTTTTCACAAAATACACACAATATATTTTATATC [CACACA_site1138],9.945 ± 0.064
13,GTATACATGCAAATTTTTATTTACAACCCCAAAAAG [XGTACX_negctrl_site255],10.4 ± 0.25
14,TTTTCATAATATACATGTACATATATAAATTATTAA [XGTACX_site5206],11.2 ± 0.67
15,TTCTTTTTTTTTATCACACATATTACAATCTAGTGC [CACACA_site4697],10 ± 0.028
16,AAAATAATATTTCCTTGTACACATATGTATTTGTTC [XGTACX_site4430],11.3 ± 0.69
17,TTTATTTATTACTAAAGTACTAAATCATATTATTAT [XGTACX_site2574],10.6 ± 0.54
18,ATGAACAAGTGGCACACACACATTATAACTAATTTA [CACACA_site5731],10.3 ± 0.26
